In all, about 48,000 compounds went through this assay and about 1,200 (2.5%) were called active. Inconclusive results (about 2%) are left out.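 The calls were made as follows: active = activation of at least 60% and not above a set upper limit (about 1 call in 100 departs from these limits); inconclusive = activation of 40% to 60%, or above that upper limit; inactive = activation under 40%.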 The list shows a part of the results.

Sequence of UniProt O75388 (O75388 whole entry, looked up, the tested form may be a part): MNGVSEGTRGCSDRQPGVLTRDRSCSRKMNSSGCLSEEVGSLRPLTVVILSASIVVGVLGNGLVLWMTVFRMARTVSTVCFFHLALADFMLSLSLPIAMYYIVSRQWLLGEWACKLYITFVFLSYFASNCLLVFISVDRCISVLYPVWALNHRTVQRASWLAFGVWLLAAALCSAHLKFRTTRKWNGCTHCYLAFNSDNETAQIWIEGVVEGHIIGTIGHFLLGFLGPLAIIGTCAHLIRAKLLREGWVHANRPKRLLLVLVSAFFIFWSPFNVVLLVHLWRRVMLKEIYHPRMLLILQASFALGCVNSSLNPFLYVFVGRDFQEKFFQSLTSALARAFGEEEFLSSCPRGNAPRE

For this test, the target named is Probable G-protein coupled receptor 32 (Homo sapiens) (UniProt O75388). Nature of the test: qHTS for Agonists of Human Resolvin D1 Receptor DRV1. Also: 0% is about no effect. The note with it: CHO-K1 GPR32 beta-arrestin PathHunter luminescence, 90 min; at 76.9 µM; hits give high values; zero percent set by DMSO-only wells. The method, boiled down:
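PathHunter enzyme-fragment complementation, CHO-K1 GPR32 stable line; 2,500 cells/well, overnight attach; cpd 90 min 37 °C 5% CO2; detection reagent 1 h RT; chemiluminescence. DMSO = EC0.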
Consider `COc1ccc(C2=C(C)C(N3CCC(C(=O)Nc4ccc(F)cc4C)CC3)=NS2(=O)=O)cc1`, for which the activation was inactive: 40.8%.

With `COc1cccc(C(=O)NCC(c2ccc3c(c2)OCO3)N2CCOCC2)c1` (stereo not drawn), the activation is inactive: -20.1%.

As for `CCOc1ccc(NC(=O)C(=O)NCc2ccco2)cc1`, the activation was inactive: 4.5%.

Consider `O=C(NCc1ccccc1)C(=O)NCC(c1cccs1)S(=O)(=O)c1ccccc1` (stereo not drawn), for which the activation was inactive: -7.77%.

Consider `C[N+](C)(CCCCCC[N+](C)(C)CCCN1C(=O)c2cccc3cccc(c23)C1=O)CCCN1C(=O)c2cccc3cccc(c23)C1=O`, for which the activation is inactive: -11.6%.

As to `COc1ccc2cc3cc(C(=O)NCc4ccccc4OC)oc3nc2c1`, the activation is inactive: 4.18%.

Consider `CC1(C)CC(=O)c2cc(C(=O)Nc3ccccc3Cl)c(=O)n(-c3ccc(Cl)cc3)c2C1`, for which the activation was inactive: -8.04%.

For `CCc1nonc1NC(=O)c1oc2ccc(F)cc2c1C`, the activation is inactive: 7.67%.

Consider `CN(C)c1ccc(CNC(=O)C2CCCN(S(=O)(=O)c3ccc4c(c3)oc(=O)n4C)C2)cc1` (stereo not drawn), for which the activation is inactive: 19.9%.

`COc1ccc(CCNC(=O)C(=O)NCC(c2ccc3c(c2)OCO3)N2CCOCC2)cc1` (stereo not drawn): the activation is inactive: -20%.

On to `CC1=C(C(=O)Nc2ccc(Cl)cc2)C(c2ccccc2C)n2ncc(C(=O)Nc3ccc(C)cc3)c2N1` (stereo not drawn), for which the activation is inactive: -21.5%.

As for `Cc1cccc(OCC(=O)NC(Cc2c[nH]c3ccccc23)C(=O)O)c1C` (stereo not drawn), the activation is inactive: 9.01%.

`COc1ccc(-n2cc(-c3ccccc3)c3c(NC4CCCCC4)ncnc32)cc1`: the activation is inactive: -33.4%.

For the molecule `O=C(Nc1cc(F)ccc1F)N1CCC(CN2CCOCC2)CC1`, the activation is inactive: -9.37%.

Turning to `Cc1cc(OCCOCC[N+](C)(C)Cc2ccccc2)ccc1C(C)(C)CC(C)(C)C`, the activation is inactive: 6.35%.

On to `Cc1cccc(OCCCCn2c(C3CC(=O)N(c4ccccc4Cl)C3)nc3ccccc32)c1` (stereo not drawn), for which the activation is inactive: -9.76%.

As for `Cn1c(=O)n(C/C=C/c2ccccc2)c(=O)c2c1nc1n2CCN1c1ccc(F)cc1`, the activation was inactive: -6.74%.

For the molecule `COc1ccc(S(=O)(=O)NCCc2sc(C)nc2C)cc1F`, the activation was inactive: 11.4%.

As for `CCOC(=O)C1=C(C)NC(C)=C(C(=O)OCC)C1c1ccccc1/C=C/C(=O)OC(C)(C)C`, the activation is inactive: -6.83%.

For `Cc1ccc2c(CC(=O)Nc3cccc(Cl)c3C)coc2c1`, the activation was inactive: 3.16%.

Turning to `Cc1ccc(-c2nc3cc(NC(=O)c4cc5ccccc5o4)ccc3o2)cc1`, the activation was inactive: 0.99%.

For the molecule `CCN1C(=O)c2ccccc2Sc2ccc(NC(=O)COc3ccc(Cl)cc3)cc21`, the activation is inactive: -1.01%.

In the case of `CN1CCN(c2ncc3c(n2)CCN(Cc2cc(Br)cs2)C3)CC1`, the activation was inactive: -33.3%.

`CCOc1ccc(-c2cnc(NCc3ccc(C(F)(F)F)cc3)n2C)cc1`: the activation is inactive: -58.5%.

For `CCOc1ccc(-n2c(SCC(=O)Nc3cccc(Cl)c3)nc3c(oc4ccccc43)c2=O)cc1`, the activation was inactive: -4.58%.

For the molecule `COc1ccc(C(=O)CC2(O)C(=O)Nc3c(C)cccc32)c(OC)c1OC` (stereo not drawn), the activation is inactive: -13.3%.

In the case of `O=C(c1ccc(C(F)(F)F)cc1)N1CCC(c2noc(-c3ccc(S(=O)(=O)N4CCCC4)cc3)n2)CC1`, the activation is inactive: -2.37%.

In the case of `O=C(c1cccs1)N(Cc1cccnc1)c1nc2c(Cl)cccc2s1`, the activation was inactive: -23.4%.

`NC(=O)c1ccccc1NC(=O)C1CCCN(c2ncnc3onc(-c4ccc(F)cc4)c23)C1` (stereo not drawn): the activation is inactive: -2.39%.

As to `O=C(CCc1nc2cccnc2n1Cc1cccs1)Nc1cccc(C(F)(F)F)c1`, the activation was inactive: -2.98%.

For the molecule `Cc1ccccc1Cn1c(=O)n(Cc2ccc3c(c2)OCO3)c(=O)c2oc3ccccc3c21`, the activation is inactive: -0.434%.

As to `O=C(NC1CCCC1)c1ccc2c(c1)N(Cc1ccc(C(F)(F)F)cc1)C(=O)c1ccccc1S2`, the activation was inactive: 16.3%.

Turning to `CN(C)C(=O)c1ccc(NC(=O)Cn2nnnc2-c2ccccc2F)cc1`, the activation was inactive: 3.92%.

Consider `COc1ccc(-c2noc(CCC(=O)N(C)c3ccccc3C)n2)cc1`, for which the activation was active: 107%.

As for `COCCCNS(=O)(=O)c1cc(-c2onc(C)c2C)ccc1OC`, the activation was inactive: -7.83%.

In the case of `COc1ccc(N2CCN(C(=O)CSc3n[nH]c(-c4ccccc4)n3)CC2)cc1`, the activation is inactive: -9.14%.

Regarding `O=C(Nc1ccc(-c2nc3cc(NC(=O)c4ccccc4Cl)ccc3o2)cc1)c1ccccc1Cl`, the activation was inactive: -1.03%.

In the case of `COc1ccc(Nc2c3c(nc4ccc(NC(=O)/C=C/c5cc(OC)c(OC)c(OC)c5)cc24)CCCC3)cc1OC`, the activation was inactive: -10.1%.

On to `N#Cc1ccc(-c2cccs2)nc1SCc1c(F)cccc1Cl`, for which the activation is inactive: 4.41%.

`COc1ccc(N(CC(=O)NCc2ccc(F)cc2)S(=O)(=O)c2c(C)noc2C)cc1`: the activation is inactive: -5.38%.

In the case of `COc1ccccc1CNC(=O)Cc1c(C)c2c(cc(C)c3c(C)coc32)oc1=O`, the activation is inactive: -45.8%.

In the case of `CN(C)c1ccc(CN(CC2CCCO2)C(=O)COc2ccccc2Cl)cc1` (stereo not drawn), the activation was inactive: -15.7%.

Regarding `Cc1ccccc1C(=O)N(Cc1ccc(N(C)C)cc1)Cc1ccco1`, the activation is inactive: -30.6%.

For the molecule `COc1ccc(OC)c(-c2nc3c(C#N)c[nH]n3c2NC2CCCCC2)c1`, the activation was inactive: -31.5%.

Turning to `CCCN(c1ccc(C(C)C)cc1)S(=O)(=O)c1ccc2c(c1)CCN2C(=O)CC`, the activation is inactive: 15.7%.

On to `CCC(CC)C(=O)Nc1cc(-c2cccc(C)c2)nn1-c1ccccc1`, for which the activation is inactive: -32.8%.

Consider `COc1cccc(CNC(=O)C2CCN(C(=O)N3CCOc4ccc(Cl)cc43)CC2)c1OC`, for which the activation was inactive: -4.28%.

As for `COc1ccc(Cl)cc1NC(=O)c1cc(C)nc2c1c(C)nn2-c1ccccc1`, the activation is inactive: -9.8%.

As for `O=c1c2sc3ccccc3c2n(Cc2ccccc2F)c(=O)n1Cc1ccccc1`, the activation was inactive: -2.44%.

`CC1=C(C(=O)Nc2ccccc2)C(c2cccnc2)n2nc(SCc3ccccc3F)nc2N1` (stereo not drawn): the activation is inactive: -2.28%.

`O=c1c2cnn(-c3ccc(Cl)cc3)c2ncn1Cc1ccc(Cl)cc1Cl`: the activation is inactive: -9.2%.

`Cc1nc2c(C(=O)NCc3ccccc3)cnn2c(C)c1Cc1ccc(F)cc1`: the activation was inactive: -12.7%.

Take `Cc1ccc(Cn2c(=O)n(Cc3ccco3)c(=O)c3sc4ccccc4c32)cc1`: the activation was inactive: -10.8%.

For the origin of these results see PubChem BioAssay AID1346428 (National Center for Advancing Translational Sciences (NCATS), 2018).
